{"source": "ChEMBL document CHEMBL4888484", "about": "“Replenishing the malaria drug discovery pipeline: Screening and hit evaluation of the MMV Hit Generation Library 1 (HGL1) against asexual blood stage Plasmodium falciparum ,using a nano luciferase reporter read-out” (2022)", "note": "The whole screen tested about 150,000 compounds, of which about 540 (0.36%) showed an effect of 50% or more. The list shows a part of the results."}
{"test_system": "Plasmodium falciparum", "assay": "Primary screen in NF54 nanoGlo assay, in single point, at 2uM, 72h; a lower Z score goes with more inhibition", "type": "functional, Erythrocyte", "settings": "timepoint 72 hour", "units": {"% Inhibition": "%"}}
{"smiles": "Cc1ccc2nc(-c3ccc(NC(=O)c4ccc(F)cc4)cc3)ccc2c1", "% Inhibition": -7, "Z score": 1.01}
{"smiles": "Nc1nccnc1C(=O)Nc1cccc(NC(=O)c2ccccc2)c1", "% Inhibition": -11, "Z score": 2}
{"smiles": "C#CCNC(=O)[C@@H](NC(=O)c1ccnn1C(C)C)[C@@H](C)O", "% Inhibition": -3, "Z score": 0.57}
{"smiles": "CC(C)N(CC(N)=O)Cc1ccccc1C(F)(F)F", "% Inhibition": -8, "Z score": 1.14}
{"smiles": "CCOC(=O)CCC(=O)NCCn1ccc(-c2cnccn2)n1", "% Inhibition": 20, "Z score": -2.52}
{"smiles": "O=C(NCc1noc(Cc2ccccc2)n1)c1coc(-c2ccccc2)n1", "% Inhibition": 4, "Z score": -0.64}
{"smiles": "CN1CC[C@H](C(=O)NC2CCN(Cc3cccs3)CC2)CC1=O", "% Inhibition": -9, "Z score": 1.77}
{"smiles": "Cc1ccc(C)c(S(=O)(=O)N2CCC(O)(c3nccn3C)CC2)c1", "% Inhibition": -7, "Z score": 0.78}
{"smiles": "CCc1nc2cc(N3CCCC(C(=O)NCC4CCCO4)C3)cnc2nc1CC", "note": "(stereo not given)", "% Inhibition": -2, "Z score": 0.44}
{"smiles": "CCc1nnc(CN(C(=O)CCc2nncn2C)C(C)C)o1", "% Inhibition": -10, "Z score": 1.47}
{"smiles": "O=C1NCCN(Cc2cnn(CC(F)F)c2)c2ccccc21", "% Inhibition": -16, "Z score": 2.87}
{"smiles": "COC(OC)C(=O)N1CCN(CCO[C@@H]2CCCCO2)CC1", "% Inhibition": -5, "Z score": 0.91}
{"smiles": "O=C(NCCc1ccc(O)cc1)C(=O)Nc1cccc2nonc12", "% Inhibition": -1, "Z score": 0.13}
{"smiles": "CCO[C@H]1COC[C@@H]1NC(=O)c1cc2cc(C)ccn2n1", "% Inhibition": -12, "Z score": 1.31}
{"smiles": "CC(=Cc1cncs1)c1cnccn1", "% Inhibition": -7, "Z score": 1.42}
{"smiles": "Cc1cc(NC(=O)Cn2c(=O)n(CCc3ccccc3)c(=O)c3ccccc32)no1", "% Inhibition": 35, "Z score": -4.02}
{"smiles": "OC(CN1CCCC(c2nc3ccccc3s2)C1)c1ccccc1", "note": "(stereo not given)", "% Inhibition": -13, "Z score": 1.44}
{"smiles": "COc1ccc(Nc2c3c(nc4c(-c5ccccc5)c(C)nn24)CCC3)cc1", "% Inhibition": 11, "Z score": -1.54}
{"smiles": "Cc1ccc(F)cc1S(=O)(=O)Oc1cccc(-n2cncn2)c1", "% Inhibition": -23, "Z score": 2.08}
{"smiles": "COc1ccc(N(C(=O)c2ccc(C)cc2)C(C)(C)C(=O)Nc2c(C)cccc2C)cc1", "% Inhibition": -5, "Z score": 0.68}
{"smiles": "CC(c1ccccc1)N1CC(C(=O)N2CCN(C(=O)c3ccccc3Cl)CC2)CC1=O", "note": "(stereo not given)", "% Inhibition": 0, "Z score": -0.05}
{"smiles": "CCc1ccc(CNC(=O)C2CCN(c3ncnc4c3oc3ccccc34)CC2)cc1", "% Inhibition": -9, "Z score": 1.58}
{"smiles": "CCC[C@]1(O)CCC12CCN(C(=O)c1ccn(CC)n1)CC2", "% Inhibition": -3, "Z score": 0.32}
{"smiles": "Cc1cc(C)n2cc(CN3CCCC[C@@H]3Cn3cncn3)nc2n1", "% Inhibition": 2, "Z score": -0.2}
{"smiles": "C=CCCC(=O)N1CCC(OC2CCC(C)CC2)CC1", "note": "(stereo not given)", "% Inhibition": -11, "Z score": 1.73}
{"smiles": "Cc1ccc(OCCN2CCN(C)[C@]3(CCC(=O)N(C)CC3)C2)c(Cl)c1", "% Inhibition": -1, "Z score": 0.11}
{"smiles": "COCCCN1C(=O)C[C@](CC(=O)N(C)CCn2nc(C)cc2C)(c2ccccc2OC)C1=O", "% Inhibition": -4, "Z score": 0.87}
{"smiles": "CC(C)c1cccc(OC(C(=O)N2C3CCC2CC(O)C3)c2ccccc2)c1", "note": "(stereo not given)", "% Inhibition": -2, "Z score": 0.26}
{"smiles": "CC(=O)N1c2cc(S(=O)(=O)Nc3ccc(Br)cc3F)c(Br)cc2C[C@@H]1C", "% Inhibition": -1, "Z score": 0.05}
{"smiles": "CCCCCc1nnc(NC(=O)[C@@H](c2cccnc2)N(C)C)s1", "% Inhibition": 1, "Z score": -0.14}
{"smiles": "CCN(Cc1nc(C)no1)C(=O)c1cc(CC(C)C)no1", "% Inhibition": -10, "Z score": 1.94}
{"smiles": "CC(C)(C)OC(=O)N1CCN(Cc2ccc(-n3cccn3)cc2)CC1", "% Inhibition": -1, "Z score": 0.23}
{"smiles": "Cc1nn(C(C)C)c(C)c1Nc1ccc2nnnn2n1", "% Inhibition": 3, "Z score": -0.47}
{"smiles": "Cc1cc(C)n2ncc(CN3CCC(c4ncon4)CC3)c2n1", "% Inhibition": -3, "Z score": 0.39}
{"smiles": "C[C@H]1OCCN(Cc2c(Br)cnn2C)[C@@H]1C(N)=O", "% Inhibition": -7, "Z score": 1.4}
{"smiles": "c1nc(N2CCCC2)ncc1-c1nc([C@H]2CCOC2)no1", "% Inhibition": -7, "Z score": 1.28}
{"smiles": "Cc1cc(C)c(S(=O)(=O)N2CCC[C@H]2c2nncn2C)s1", "% Inhibition": 2, "Z score": -0.24}
{"smiles": "CN1CCO[C@H](C(=O)Nc2cc(S(=O)(=O)N3CCCC3)ccc2O)C1", "% Inhibition": -2, "Z score": 0.24}
{"smiles": "CC(C)c1nc(Nc2ccc(OCCO)cc2)nc(N(C)C)n1", "% Inhibition": -7, "Z score": 0.79}
{"smiles": "COCCn1cnc(-c2ccccc2)c1-c1cccc(Cn2cccn2)c1", "% Inhibition": -7, "Z score": 1.42}
{"smiles": "Cc1nc2ccccn2c1CN1C(=O)CN(c2ccccc2)C1=O", "% Inhibition": -5, "Z score": 0.75}
{"smiles": "Cn1nccc1-c1cncc(CNC(=O)c2cscn2)c1", "% Inhibition": 8, "Z score": -1.04}
{"smiles": "CNc1oc(-c2ccc(Cl)cc2Cl)nc1S(=O)(=O)c1ccc(Cl)cc1", "% Inhibition": -17, "Z score": 1.54}
{"smiles": "CCOc1ccccc1N(C)C(=O)[C@H]1CCn2ccnc2C1", "% Inhibition": -14, "Z score": 1.57}
{"smiles": "O=C(Cn1ncc2c1-c1ccoc1CC2)NCc1ccccc1Cl", "% Inhibition": -6, "Z score": 0.83}
{"smiles": "CCn1cc(N)c(=O)c(Br)c1", "% Inhibition": -2, "Z score": 0.2}
{"smiles": "CC(C)c1noc(CN2C[C@@](C)(c3ccccc3)CCC2=O)n1", "% Inhibition": -21, "Z score": 2}
{"smiles": "CCCCC(=O)NC1(C#N)CCC2(CC1)OCCO2", "% Inhibition": -5, "Z score": 0.84}
{"smiles": "CCCn1ncc(C(=O)N(C)[C@@H](C)c2nccs2)c1C", "% Inhibition": -9, "Z score": 1.11}
{"smiles": "C[C@]1(c2nc(-c3ccccc3-n3cccn3)no2)CCNC(=O)C1", "% Inhibition": -2, "Z score": 0.36}
{"smiles": "COCc1cc(C(=O)NCc2nc3ccccc3s2)no1", "% Inhibition": 3, "Z score": -0.36}
{"smiles": "O=C(Nc1cccc2ncccc12)c1ccc2nsnc2c1", "% Inhibition": 1, "Z score": -0.11}
{"smiles": "CCC(C)(C)NC(=O)Cc1ccc(Cl)cc1F", "% Inhibition": -5, "Z score": 0.63}
{"smiles": "COc1cc(NC(=O)[C@@](C)(OC)C2CC2)ncc1Br", "% Inhibition": -3, "Z score": 0.3}
{"smiles": "COc1c(CN2C(=O)c3ccccc3C2=O)cc(CN2C(=O)c3ccccc3C2=O)cc1CN1C(=O)c2ccccc2C1=O", "% Inhibition": -15, "Z score": 2.77}
